# Measured values published in PubChem BioAssay AID485344 (National Center for Advancing Translational Sciences (NCATS), 2010).
# About 6,900 (2%) of roughly 340,000 compounds were called active. Rule as the data show it: active = inhibition above about 30%; inactive = below that, where a call was filed. Only a part is listed here, and it is no random draw. The source gives no active or inactive call for entries shown without one.
# Target: D(2) dopamine receptor (Homo sapiens) (UniProt P14416)
# Assay: HTS Assay for Allosteric Antagonists of the Human D2 Dopamine Receptor: Primary Screen for Antagonists; also: 0% is about no effect
# Conditions: HEK293 TREx D2 cells, calcium flux, dopamine EC80; at 10 µM; stronger effect = higher value
# Outline: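 Tetracycline-induced HEK293 T-REx cells expressing D2 force-coupled to calcium signalling were dye-loaded, exposed to compound for 180 s, then challenged with an EC80 of dopamine; calcium flux was followed kinetically for a further 180 s.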
# UniProt P14416, sequence (P14416 whole entry, looked up): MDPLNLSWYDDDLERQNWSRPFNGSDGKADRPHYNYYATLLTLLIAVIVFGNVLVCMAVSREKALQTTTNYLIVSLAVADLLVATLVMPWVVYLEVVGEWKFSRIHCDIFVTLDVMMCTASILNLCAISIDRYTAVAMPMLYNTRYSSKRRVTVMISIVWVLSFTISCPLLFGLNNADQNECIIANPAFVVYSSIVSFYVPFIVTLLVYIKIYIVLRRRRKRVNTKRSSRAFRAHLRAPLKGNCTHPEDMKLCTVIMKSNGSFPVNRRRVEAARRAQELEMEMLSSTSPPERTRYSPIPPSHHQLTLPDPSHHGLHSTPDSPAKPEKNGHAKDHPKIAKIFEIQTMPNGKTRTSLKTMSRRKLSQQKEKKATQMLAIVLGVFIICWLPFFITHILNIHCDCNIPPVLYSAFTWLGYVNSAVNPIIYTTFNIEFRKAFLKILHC
row,SMILES,inhibition
1,Cc1cccc(C(=O)NCC(=O)OCc2cc(=O)n3nc(C4CC4)sc3n2)c1,19.5%
2,Cc1cc(C)cc(NC(=O)CCc2c(C)nc3c4cccnc4nn3c2C)c1,-1.95%
3,CCOC(=O)Cn1c(=O)n(C2CCCCC2)c2nc(-c3cccc(OC)c3)nc(C(N)=O)c21,-25.6%
4,COc1cccc(CNC(=O)CCc2c(C)c3cc4c(C)coc4c(C)c3oc2=O)c1,17.8%
5,COc1ccc(OCC(=O)N2CCN(C(=O)c3cccc(OC)c3)CC2)cc1,-7.65%
6,CCc1ccccc1NC(=O)CCS(=O)(=O)c1cccc2nonc12,-1.3%
7,COc1ccccc1NC(=O)c1sc2nc(C)c(C(=O)Nc3ccc(C)cc3C)c(-c3ccc(C)o3)c2c1N,4.98%
8,Cc1ccc(-n2ncc3c(N4CCN(C)CC4)ncnc32)cc1C,24.7%
9,COc1ccccc1C(=O)Nc1ccnn1C1CCN(Cc2cc(C)c(C)cc2C)CC1,active: 52.8%
10,Cc1ccc(C)c(Cn2c(=O)cc(C)c3c(C)nn(C)c32)c1,-1.71%
11,CCn1c(C)c(C)c2cc(C(=O)NCc3cccc(C)c3)ccc21,2.43%
12,O=C(c1ccccc1)N(Cc1ccco1)Cc1cccs1,4.26%
13,COc1ccc(NC(=O)/C=C\C(=O)N(c2ccc(C(C)C)cc2)C(C(=O)NCc2ccco2)c2ccc(F)cc2)cc1 (stereo not drawn),-3.01%
14,Cc1cccc(C(=O)Nc2ccc(C(=O)OCc3cc(=O)n4nc(CC(C)C)sc4n3)cc2)c1,4.26%
15,CCN(C(=O)C1CCN(c2ncnc3c2nc2n3CCCCC2)CC1)c1cccc(Cl)c1,-14.4%
16,Cc1cccc(N2CCN(c3nc4ccc(C)cc4n4cnnc34)CC2C)c1 (stereo not drawn),-12.5%
17,COc1ccc(-n2ccnc(NCc3ccc(C)cc3)c2=O)cc1OC,-2.33%
18,O=C(NCC(c1ccc2c(c1)OCO2)N1CCOCC1)c1c(F)cccc1F (stereo not drawn),15.4%
19,CCOc1ccccc1N(CC)C(=O)c1noc2c1COc1ccc(C)cc1-2,11.1%
20,O=C(c1ccc(F)cc1)n1nc(-c2ccccc2)nc1NCc1ccco1,-5.87%
21,O=C(NC1CCCCC1)c1ccc2c(c1)N(Cc1ccc(Cl)cc1)C(=O)c1ccccc1S2=O (stereo not drawn),-14.8%
22,CCn1cc(C(=O)NCCc2ccc(Cl)cc2)c(=O)c2cc(S(=O)(=O)N3CCC(C)CC3)ccc21,-19.4%
23,Cc1cccc(NC(=O)CCNS(=O)(=O)c2cccc3nsnc23)c1C,10%
24,COc1ccc(N(CC(=O)N2CCN(c3ccccc3F)CC2)S(=O)(=O)c2c(C)n[nH]c2C)cc1,0.908%

row,SMILES,inhibition
1,CCN1CCN(CCCNC(=O)c2ccc3nc(Cc4ccccc4)oc3c2)CC1,18.8%
2,COc1ccc(N2CCN(C(=O)c3cc(S(=O)(=O)N4CCC(C)CC4)cn3C)CC2)cc1,25.3%
3,CC(=O)N1CCc2cc(CNS(=O)(=O)c3ccc(Cl)s3)ccc21,-21.4%
4,COc1ccc(-n2c(=O)c3c4c(sc3n3c(SCCC(C)C)nnc23)COC(C(C)C)C4)cc1 (stereo not drawn),8.38%
5,CN1C(=O)C2(SCC(=O)N2c2ccc(F)cc2)c2ccccc21 (stereo not drawn),-3.59%
6,COc1cc(OC)cc(C(=O)Nc2ccc3oc(-c4cccc5c(Br)cccc45)nc3c2)c1,8.61%
7,CCOc1ccc(OCC)c(NS(=O)(=O)c2cc(-c3onc(C)c3C)ccc2OC)c1,-1.98%
8,Cc1ccc(NC(=O)CN2C(=O)C3(SCC(=O)N3c3ccc(F)c(F)c3)c3ccccc32)c(C)c1 (stereo not drawn),-9.71%
9,CCOCCCNC(=O)C(c1ccc(Cl)cc1)N(Cc1cccs1)C(=O)c1ccc(NC(C)=O)cc1 (stereo not drawn),-0.0532%
10,CCC(=O)N1CCc2cc(Br)cc(S(=O)(=O)CCC(=O)N(CC)Cc3ccccc3)c21,-7.99%
11,CN(C)c1ccc(C(CNC(=O)c2c(F)cccc2Cl)N2CCOCC2)cc1 (stereo not drawn),4.61%
12,CC(C)(Oc1ccc(Cl)cc1)C(=O)Nc1nc2ccc(S(C)(=O)=O)cc2s1,-13.3%
13,Cc1ccc(NC(=O)c2c(C)oc3ccc(O)c(CN4CCCCC4)c23)c(C)c1,-11.3%
14,Cc1ccc(-c2nnc(Nc3ccc(S(N)(=O)=O)cc3)c3ccccc23)cc1S(=O)(=O)N1CCCCC1,-0.951%
15,COc1ccc(CCC(=O)NCCc2csc(-c3ccc(Cl)cc3)n2)cc1,19.8%
16,COCCNC(=O)CSc1nc(-c2ccccc2C)nc2c1c(=O)n(C)c(=O)n2C,9.26%
17,NS(=O)(=O)c1ccc2nc(NC(=O)COc3ccccc3)sc2c1,4.71%
18,Cc1ccc(NC(=O)c2nc(S(C)(=O)=O)ncc2N(Cc2ccco2)Cc2ccco2)cc1C,-1.01%
19,CN(Cc1ccco1)S(=O)(=O)c1nnc(NC(=O)c2cccc(Cl)c2)s1,0.801%
20,CCCN(CCC)C(=O)c1cc2c(=O)n3cccc(C)c3nc2n1C,-0.553%
21,Cc1ccc2cccc(NC(=O)c3ccc(-c4cccc(Cl)c4)o3)c2n1,14.9%
22,CC(C)C(NS(=O)(=O)c1ccc2c(c1)oc(=O)n2C)C(=O)NCCc1ccc(Cl)cc1 (stereo not drawn),-1.29%
23,Cc1ccc(NC(=O)Cn2c(=O)oc3cc(S(=O)(=O)N4CCCCCC4)ccc32)cc1Cl,-16.9%
24,CCCCOc1ccc(C(=O)N(Cc2nc(-c3ccc(Cl)cc3)no2)C(C)C)cc1,-3.44%
